Patent US9872922B2, “Anti-EFNA4 antibody-drug conjugates” (PFIZER, INC., priority 2013, dated 2018)

Assays:
[1] = test system: Breast-31 (BR31) TNBC PDX; assay: In vivo efficacy, BR31 TNBC PDX; design: species or system NOD/SCID mice (human tumor PDX); settings: for Regression (TTP, Days): BR31 PDX
[2] = test system: Breast-56 (BR56) TNBC PDX; assay: In vivo efficacy, BR56 TNBC PDX; design: species or system NOD/SCID mice (human tumor PDX)

B1: huE22-AcBut-CM: huE22 conjugated via lysine residues to AcBut-N-acetyl-γ-calicheamicin dimethyl hydrazide (AcBut-CM) (conjugate)
heavy: QVQLVQSGAEVKKPGASVKVSCKASGYTFTGYYIHWVRQAPGQGLEWMGWIYPGNFNTKYNERFKGRVTMTTDTSTSTAYMELRSLRSDDTAVYYCAREDGSPYYAMDYWGQGTSVTVSS[human IgG1 constant region omitted here]
light: DIVMTQTPLSLSVTPGQPASISCRSSQSLVHSNGNTFLYWYLQKPGQSPQLLIYRVSNRFSGVPDRFSGSGSGTDFTLKISRVEAEDVGVYYCFQATHVPWTFGGGTKVEIKRTVAAPSVFIFPPSDEQLKSGTASVVCLLNNFYPREAKVQWKVDNALQSGNSQESVTEQDSKDSTYSLSSTLTLSKADYEKHKVYACEVTHQGLSSPVTKSFNRGEC
Regression (TTP, Days) ([1]; 0.09 mg/kg): Regression (56) Days | mean tumor volume ([1]; 0.09 mg/kg, Day 0): 165 ± 6 | mean tumor volume ([1]; 0.09 mg/kg, Day 7): 277 ± 18 | mean tumor volume ([1]; 0.09 mg/kg, Day 14): 201 ± 11 | mean tumor volume ([1]; 0.09 mg/kg, Day 21): 103 ± 12 | mean tumor volume ([1]; 0.09 mg/kg, Day 28): 64 ± 4 | mean tumor volume ([1]; 0.09 mg/kg, Day 44): 57 ± 15 | mean tumor volume ([1]; 0.09 mg/kg, Day 49): 82 ± 19 | mean tumor volume ([1]; 0.09 mg/kg, Day 56): 132 ± 32 | mean tumor volume ([1]; 0.09 mg/kg, Day 63): 206 ± 44 | mean tumor volume ([1]; 0.09 mg/kg, Day 71): 338 ± 73 | mean tumor volume ([1]; 0.09 mg/kg, Day 78): 414 ± 74 | mean tumor volume ([1]; 0.09 mg/kg, Day 85): 589 ± 121 | mean tumor volume ([1]; 0.09 mg/kg, Day 91): 741 ± 157 | mean tumor volume ([1]; 0.09 mg/kg, Day 98): 1178 ± 271 | Regression (TTP, Days) ([1]; 0.27 mg/kg): Regression (91) Days | mean tumor volume ([1]; 0.27 mg/kg, Day 0): 149 ± 13 | mean tumor volume ([1]; 0.27 mg/kg, Day 7): 137 ± 11 | mean tumor volume ([1]; 0.27 mg/kg, Day 14): 59 ± 8 | mean tumor volume ([1]; 0.27 mg/kg, Day 21): 30 ± 9 | mean tumor volume ([1]; 0.27 mg/kg, Day 28): 11 ± 7 | mean tumor volume ([1]; 0.27 mg/kg, Day 36): 17 ± 9 | mean tumor volume ([1]; 0.27 mg/kg, Day 44): 0 ± 0 | mean tumor volume ([1]; 0.27 mg/kg, Day 49): 0 ± 0 | mean tumor volume ([1]; 0.27 mg/kg, Day 56): 0 ± 0 | mean tumor volume ([1]; 0.27 mg/kg, Day 63): 0 ± 0 | mean tumor volume ([1]; 0.27 mg/kg, Day 71): 0 ± 0 | mean tumor volume ([1]; 0.27 mg/kg, Day 78): 0 ± 0 | mean tumor volume ([1]; 0.27 mg/kg, Day 85): 12 ± 8 | mean tumor volume ([1]; 0.27 mg/kg, Day 91): 20 ± 13 | mean tumor volume ([1]; 0.27 mg/kg, Day 98): 26 ± 17 | mean tumor volume ([1]; 0.27 mg/kg, Day 105): 32 ± 21 | mean tumor volume ([1]; 0.27 mg/kg, Day 112): 29 ± 20 | mean tumor volume ([1]; 0.27 mg/kg, Day 119): 58 ± 39 | mean tumor volume ([1]; 0.27 mg/kg, Day 126): 88 ± 58 | mean tumor volume ([1]; 0.27 mg/kg, Day 133): 159 ± 103 | mean tumor volume ([1]; 0.27 mg/kg, Day 141): 181 ± 118 | mean tumor volume ([1]; 0.27 mg/kg, Day 147): 219 ± 142 | mean tumor volume ([1]; 0.27 mg/kg, Day 154): 279 ± 176 | mean tumor volume ([1]; 0.27 mg/kg, Day 161): 293 ± 172 | mean tumor volume ([1]; 0.27 mg/kg, Day 168): 293 ± 172 | mean tumor volume ([1]; 0.27 mg/kg, Day 175): 306 ± 170 | mean tumor volume ([1]; 0.27 mg/kg, Day 182): 308 ± 169 | mean tumor volume ([1]; 0.27 mg/kg, Day 189): 317 ± 168 | mean tumor volume ([1]; 0.27 mg/kg, Day 197): 429 ± 192 | mean tumor volume ([1]; 0.27 mg/kg, Day 204): 445 ± 200 | Regression (TTP, Days) or % TGI ([2]; 0.018 mg/kg, BR56 PDX): No activity | tumor volume ± SEM ([2]; 0.09 mg/kg, Day 4): 150 ± 10 mm^3 | tumor volume ± SEM ([2]; 0.09 mg/kg, Day 11): 268 ± 32 mm^3 | tumor volume ± SEM ([2]; 0.09 mg/kg, Day 18): 251 ± 25 mm^3 | tumor volume ± SEM ([2]; 0.09 mg/kg, Day 25): 286 ± 39 mm^3 | tumor volume ± SEM ([2]; 0.09 mg/kg, Day 40): 341 ± 47 mm^3 | tumor volume ± SEM ([2]; 0.09 mg/kg, Day 47): 442 ± 66 mm^3 | tumor volume ± SEM ([2]; 0.09 mg/kg, Day 54): 635 ± 94 mm^3 | tumor volume ± SEM ([2]; 0.09 mg/kg, Day 60): 816 ± 64 mm^3 | % TGI ([2]; 0.09 mg/kg, BR56 PDX): 56% TGI | tumor volume ± SEM ([2]; 0.09 mg/kg, Day 0): 148 ± 14 mm^3 | tumor volume ± SEM ([2]; 0.09 mg/kg, Day 33): 291 ± 45 mm^3
